{"source": "PubChem BioAssay AID463173", "about": "(ICCB-Longwood Screening Facility, Harvard Medical School, 2010)", "note": "Screen size: about 52,000 compounds; about 4,300 (8.3%) were called active. No stated cut-off is given here; in the data, active means survival mostly below about 52% (no sharp cut-off); inactive means mostly above about 56%. The list shows a part of the results.", "data": [{"system": "DeltatarO mutant", "experiment": "S. aureus survival, RN4220 and DeltatarO strains – OD600, teichoic acid synthesis inhibitors, primary screen (AID 463173)", "details": "S. aureus RN4220 wild type/DeltatarO growth, OD600, 18 h, hits give low values, screened at 18.75 µg/mL (by protocol)", "values": [{"smiles": "COC(=O)C1C(=O)/C(=C/N(C)C)C(=O)CC1(C)C", "note": "(stereo not given)", "survival": "inactive: 101%"}, {"smiles": "Oc1c(C(c2ccc(F)cc2)N2CCCC2)sc2nc(-c3ccco3)nn12", "note": "(stereo not given)", "survival": "inactive: 83%"}, {"smiles": "Cc1ccc(S(=O)(=O)c2cn(C)c3cc(N4CCOCC4)c(F)cc3c2=O)c(C)c1", "survival": "inactive: 75%"}, {"smiles": "COc1ccc(N2CCN(c3ncnc4c3nc3n4CCCCC3)CC2)cc1", "survival": "inactive: 100%"}, {"smiles": "Cc1ccc(CCNC(=O)C2COc3ccccc3C2)cc1", "note": "(stereo not given)", "survival": "inactive: 74%"}, {"smiles": "Cc1ccc(Cl)cc1-n1c(=O)c2sc3ccccc3c2n(CC(=O)NC2CCCC2)c1=O", "survival": "active: 13%"}, {"smiles": "O=C(c1cccs1)N1CCN(C(=O)c2cccs2)CC1", "survival": "inactive: 105%"}, {"smiles": "COc1ccc(C2(CNC(=O)C(=O)Nc3ccc(C)c(Cl)c3)CCCC2)cc1OC", "survival": "inactive: 68%"}, {"smiles": "CCN(CC)S(=O)(=O)c1nnc(NC(=O)COc2ccccc2)s1", "survival": "inactive: 100%"}, {"smiles": "CC(=O)c1ccc(N2C(=O)N(Cc3ccc(F)cc3)c3ccccc3S2(=O)=O)cc1", "survival": "inactive: 62%"}, {"smiles": "CC(C)(C)OC(=O)N1CCC(c2c(C(=O)NCCN3CCOCC3)cnn2-c2cccc(F)c2)CC1", "survival": "inactive: 109%"}, {"smiles": "CCN1CCN(c2oc(-c3ccc(COc4ccc(OC)cc4)o3)nc2C#N)CC1", "survival": "active: 49%"}, {"smiles": "COc1ccc(OC)c(C(=O)CN2C(=O)N(c3cc(C)cc(C)c3)S(=O)(=O)c3ccccc32)c1", "survival": "inactive: 81%"}, {"smiles": "Clc1cccc(-n2ncc3c(NCCC4=CCCCC4)ncnc32)c1", "survival": "active: 37%"}, {"smiles": "O=C(NCc1cccnc1)C(C(=O)c1ccc(F)cc1)n1ccccc1=O", "note": "(stereo not given)", "survival": "inactive: 93%"}, {"smiles": "O=C(NC1CCCC1)C(c1ccccn1)N(C(=O)c1ccc2c(c1)OCCO2)c1ccccc1", "note": "(stereo not given)", "survival": "inactive: 94%"}, {"smiles": "COc1ccc(C)cc1NC(=O)CSc1nc(=O)n(Cc2cccnc2)c2c1CCC2", "survival": "inactive: 97%"}, {"smiles": "CCCCCN1C(C(=O)c2ccccc2)=C(NC(=O)c2ccc(OC)c(OC)c2)c2ccccc2S1(=O)=O", "survival": "inactive: 84%"}, {"smiles": "COC(=O)c1ccccc1NC(=O)CSc1cc(-c2ccccc2)nc(C)n1", "survival": "inactive: 71%"}, {"smiles": "Clc1ccc(-c2ccc(CNCCSc3nnnn3-c3ccccc3)o2)cc1", "survival": "inactive: 52%"}, {"smiles": "COc1ccc(NC(=O)N2CCC(CN3CCCC3)CC2)c(OC)c1", "survival": "inactive: 76%"}, {"smiles": "O=C(C1CCCN(S(=O)(=O)c2cccc3nonc23)C1)N1CCN(c2ccccc2F)CC1", "note": "(stereo not given)", "survival": "inactive: 82%"}, {"smiles": "CCn1c(=O)c2sccc2n2c(CCCC(=O)Nc3ccc(C)cc3)nnc12", "survival": "inactive: 76%"}, {"smiles": "Cc1ccc(N2CCN(c3ncnc4onc(-c5ccc(F)cc5)c34)CC2)c(C)c1", "survival": "inactive: 84%"}, {"smiles": "COc1ccc(-n2nnnc2C2CCN(S(=O)(=O)c3cc(Cl)ccc3OC)CC2)cc1", "survival": "inactive: 68%"}, {"smiles": "COc1cc(NC(=O)c2c(C)nn(-c3ccc(F)cc3)c2-n2cccc2)cc(OC)c1", "survival": "inactive: 78%"}, {"smiles": "Cc1ccc(S(=O)(=O)NCCc2nnc3ccc(SCc4cccc(F)c4)nn23)cc1", "survival": "inactive: 65%"}, {"smiles": "COc1ccccc1NC(=O)C(C#N)Cc1cc2cc(C)cc(C)c2[nH]c1=O", "note": "(stereo not given)", "survival": "inactive: 98%"}, {"smiles": "CCC(C)(C)NC(=O)Cn1nnc(-c2ccc(OC)cc2)n1", "survival": "inactive: 94%"}, {"smiles": "CCCCN1C(=O)C(NC(=O)c2ccc(C(C)(C)C)cc2)(C(F)(F)F)C(C(=O)OC)=C1C", "note": "(stereo not given)", "survival": "inactive: 59%"}, {"smiles": "COc1ccc(-c2nc(SCC(=O)NCc3nc4ccccc4n3C)n3[nH]c(=O)cc3n2)cc1", "survival": "inactive: 74%"}, {"smiles": "COc1ccc(NC(=O)C2CCN(c3nc4ccccc4[nH]3)CC2)cc1OC", "survival": "inactive: 66%"}, {"smiles": "Cc1cc(O)c(C(c2ccc(F)cc2)N2CCN(c3ccccc3)CC2)c(=O)n1Cc1ccco1", "note": "(stereo not given)", "survival": "inactive: 77%"}, {"smiles": "CC(NC(=O)c1cccc(Nc2nc3ccccc3n3nnnc23)c1)c1ccccc1", "note": "(stereo not given)", "survival": "inactive: 79%"}, {"smiles": "O=C1C2=C(Nc3ccccc3SC2c2ccc(C(F)(F)F)cc2)c2ccccc21", "note": "(stereo not given)", "survival": "active: 16%"}, {"smiles": "O=C(CN1C=NS(=O)(=O)c2ccccc21)Nc1ccc(Br)cc1", "survival": "inactive: 92%"}, {"smiles": "Cc1ccccc1CNC(=O)CCCn1ncn2c(cc3occc32)c1=O", "survival": "inactive: 73%"}, {"smiles": "Cc1ccc(CC23CN4CC(CN(C4)C2)C3=O)c(C)c1", "survival": "inactive: 89%"}, {"smiles": "COc1ccc(NC(=O)CSC2=Nc3ccccc3C3=NC(Cc4ccccc4)C(=O)N23)cc1", "note": "(stereo not given)", "survival": "inactive: 87%"}, {"smiles": "COc1ccccc1Nc1ncc2c(n1)CCN(CC(C)C)C2", "survival": "inactive: 76%"}, {"smiles": "COCCNC(=O)c1ccc2c(c1)NC(=O)C(CS(=O)(=O)Cc1ccc(F)cc1Cl)N2", "note": "(stereo not given)", "survival": "inactive: 130%"}, {"smiles": "COc1cccc(CNC(=O)c2ccc3oc(=O)n(Cc4ccccc4)c3c2)c1", "survival": "active: -1%"}, {"smiles": "CCCN1C2CCCC1CC(NC(=O)c1ccccc1C)C2", "note": "(stereo not given)", "survival": "inactive: 76%"}, {"smiles": "COc1ccc(-c2nc3ccccc3o2)cc1NC(=O)c1ccc(-c2ccc(C)c(Cl)c2)o1", "survival": "active: 41%"}, {"smiles": "CC(C)CC(=O)Nc1nc2ccc(S(C)(=O)=O)cc2s1", "survival": "inactive: 53%"}, {"smiles": "N#CC(C#N)C(CC(=O)c1ccccc1)c1ccc2c(c1)OCO2", "note": "(stereo not given)", "survival": "inactive: 51%"}, {"smiles": "N=c1n(CC(N)=O)c2ccccc2n1Cc1ccccc1Cl", "survival": "inactive: 99%"}, {"smiles": "COc1ccc(CC(=O)Nc2c(C(=O)N3CCN(c4ccccc4F)CC3)oc3ccccc23)cc1OC", "survival": "inactive: 78%"}, {"smiles": "Cc1ccc(Nc2c(-c3ccco3)nc3ccc(C)cn23)cc1", "survival": "inactive: 112%"}, {"smiles": "CCN(C(=O)c1cc2c(=O)oc3ccccc3c2s1)c1cccc(C(F)(F)F)c1", "survival": "inactive: 145%"}, {"smiles": "CCOc1ccc(OCC)c(Nc2nc3ccccc3n3nnnc23)c1", "survival": "inactive: 96%"}, {"smiles": "CCOC(=O)c1c(NC(=O)c2ccc(F)cc2)sc2c1CCC(CC)C2", "note": "(stereo not given)", "survival": "active: 9%"}, {"smiles": "CCOC(=O)c1cccc(NC(=O)[C@H](CSCc2ccccc2)N2Cc3ccccc3C2=O)c1", "survival": "inactive: 66%"}, {"smiles": "Cc1ccc(Nc2cc(C)nc3nncn23)c(C)c1", "survival": "inactive: 99%"}, {"smiles": "CCOc1ccc(-c2nc3ccccc3c(=O)o2)cc1", "survival": "inactive: 68%"}, {"smiles": "COc1cc(NC(=O)CN(c2cc(C)cc(C)c2)S(=O)(=O)c2c(C)[nH]c(=O)[nH]c2=O)cc(OC)c1", "survival": "inactive: 66%"}, {"smiles": "C#CC(C)(CC)NC(=O)Cn1nnc(-c2ccc(OCc3c(F)cccc3Cl)cc2)n1", "note": "(stereo not given)", "survival": "inactive: 65%"}, {"smiles": "Cc1cn2c(=O)cc(COc3ccc(NC(=O)COc4ccccc4)cc3)nc2s1", "survival": "inactive: 131%"}, {"smiles": "Cc1ccc(-n2c(=O)c3ccc(C(=O)NCc4ccccc4Cl)cc3n(CC(=O)Nc3ccc(C)cc3C)c2=O)cc1", "survival": "inactive: 79%"}, {"smiles": "O=C(CSc1ncc2c(n1)-c1ccccc1N(Cc1ccc(F)cc1)S2(=O)=O)NCCc1ccccc1", "survival": "inactive: 94%"}, {"smiles": "Cc1cc(C)cc(C(=O)n2nc(C)c(S(=O)(=O)N3CCOCC3)c2C)c1", "survival": "inactive: 87%"}, {"smiles": "CN1C(=O)C2(c3ccccc31)N(c1ccc(Br)cc1)C(=O)CS2(=O)=O", "note": "(stereo not given)", "survival": "inactive: 99%"}, {"smiles": "O=C(C1CCC(Cn2c(=O)c3sccc3n(Cc3ccc(F)cc3)c2=O)CC1)N1CCOCC1", "note": "(stereo not given)", "survival": "inactive: 77%"}, {"smiles": "O=c1[nH]c(C2CCCN(S(=O)(=O)c3ccccc3)C2)nc2c1nnn2Cc1ccc(OC(F)(F)F)cc1", "note": "(stereo not given)", "survival": "inactive: 76%"}, {"smiles": "Cc1cc(C)nc(NCC(C)c2ccccc2)n1", "note": "(stereo not given)", "survival": "inactive: 81%"}, {"smiles": "CN1C(=O)c2[nH]nc(-c3ccc(F)cc3)c2C1c1cccc(O)c1", "note": "(stereo not given)", "survival": "inactive: 91%"}, {"smiles": "CCOc1ccccc1C(=O)N1CCOCC1", "survival": "inactive: 88%"}, {"smiles": "CCc1[nH]nc2c1C1(C(=O)N(CC)c3ccccc31)C(C#N)=C(N)O2", "note": "(stereo not given)", "survival": "inactive: 78%"}, {"smiles": "Cn1cc(-c2cc3n(n2)CCC(=O)N3CCCC(=O)NCc2ccccc2Cl)c2ccccc21", "survival": "inactive: 109%"}, {"smiles": "CCOC(=O)c1noc2ncn(CC(=O)Nc3ccccc3OC)c(=O)c12", "survival": "inactive: 118%"}, {"smiles": "COc1cccc(CNC(=O)CCc2c(C)c3ccc(O)c(C)c3oc2=O)c1", "survival": "inactive: 86%"}, {"smiles": "Cc1ccc(OCCOCCn2c(-c3ccc(Cl)cc3)nc3ccccc3c2=O)cc1", "survival": "active: 39%"}, {"smiles": "CCCCN(CC)CCCNC(=O)c1ccc2c(c1)NC(=O)CN2C", "survival": "inactive: 64%"}, {"smiles": "Cc1ccc(-n2ncc(C(=O)NCCCN3CCc4ccccc4C3)c2C2CCN(C(=O)OC(C)(C)C)CC2)c(C)c1", "survival": "inactive: 115%"}, {"smiles": "CCCCOc1ccc(C2C(=O)N(C3CCCCC3)CC(=O)N2CCCC)cc1", "note": "(stereo not given)", "survival": "inactive: 89%"}, {"smiles": "O=C(O)C1CCCCC1C(=O)N1CCc2ccccc21", "note": "(stereo not given)", "survival": "inactive: 84%"}, {"smiles": "Cc1ccc(NC(=O)Cn2c(-c3nonc3N)nc3ccccc32)c(Br)c1", "survival": "inactive: 71%"}, {"smiles": "CCn1nc(CCC(=O)O)c2ccccc2c1=O", "survival": "inactive: 80%"}, {"smiles": "Cc1ccc(N2CCN(c3ccc(C)cc3)C2c2ccc(C)o2)cc1", "survival": "inactive: 76%"}, {"smiles": "COc1ccc(C)cc1NC(=O)CN1C(=O)COc2ccc(S(=O)(=O)N3CCC(C)CC3)cc21", "survival": "inactive: 69%"}, {"smiles": "Cc1c(Cl)cccc1NC(=O)C(C)n1c(=O)cc(C)c2c(C)nn(-c3ccccc3)c21", "note": "(stereo not given)", "survival": "inactive: 88%"}, {"smiles": "Cc1n[nH]c(=S)n1CC(=O)N1c2ccccc2CCc2ccccc21", "survival": "inactive: 94%"}, {"smiles": "CCOc1ccc(-n2c(=O)c3c(C)c(C)sc3n(Cc3ccccc3C)c2=O)cc1", "survival": "inactive: 85%"}, {"smiles": "CCCc1[nH]nc2c1C(CCC)C(C#N)=C(N)O2", "note": "(stereo not given)", "survival": "inactive: 81%"}, {"smiles": "COc1ccc2c(c1)CCc1c(C(=O)Nc3ccc(C#N)cc3)noc1-2", "survival": "inactive: 58%"}, {"smiles": "COc1ccc(-n2c(SCc3ccccc3)nc3c([nH]c4ccccc43)c2=O)cc1", "survival": "inactive: 144%"}, {"smiles": "CC(C(=O)N1CCCc2ccccc21)N1C(=O)c2ccccc2C1=O", "note": "(stereo not given)", "survival": "inactive: 76%"}, {"smiles": "COc1cccc(CNC(=O)Cn2nc(N3CCN(c4ccccc4OC)CC3)ccc2=O)c1", "survival": "inactive: 86%"}, {"smiles": "S=C(NNc1nc(N2CCCCC2)nc(N2CCCCC2)n1)NC1CCCCC1", "survival": "inactive: 88%"}, {"smiles": "CCOCCn1ccc2c(OCC(=O)Nc3cccc([N+](=O)[O-])c3)cccc2c1=O", "survival": "inactive: 118%"}]}]}
